Reference: a collection of fitness landscapes (doi:10.1126/science.1257360)
The list shows a part of the results.

B1: PhoQ; a variant is named by its letters at X, in order, P23837 (parent)
chain: MKKLLRLFFPLSLRVRFLLATAAVVLVLSLAYGMVALIGYSVSFDKTTFRLLRGESNLFYTLAKWENNKLHVELPENIDKQSPTMTLIYDENGQLLWAQRDVPWLMKMIQPDWLKSNGFHEIEADVNDTSLLLSGDHSIQQQLQEVREDDDDAEMTHSVAVNVYPATSRMPKLTIVVVDTIPVELKSSYMVWSWFIYVLSANLLLVIPLLWVAAWWSLRPIEALAKEVRELEEHNRELLNPATTRELTSLVRNLNRLLKSERERYDKYRTTLTDLTHSLKTPLXXLQXXLRSLRSEKMSVSDAEPVMLEQISRISQQIGYYLHRASMRGGTLLSRELHPVAPLLDNLTSALNKVYQRKGVNISLDISPEISFVGEQNDFVEVMGNVLDNACKYCLEFVEISARQTDEHLYIVVEDDGPGIPLSKREVIFDRGQRVDTLRPGQGVGLAVAREITEQYEGKIVAGESMLGGARMEVIFGRQHSAPKDE

Variants of: B1
Experiment: enrichment ratio after two sorts for PhoP signalling (ratio (wild type AVST 3.29)); higher = more functional
Details: with PhoP (E. coli)
In the case of EYHT, the enrichment ratio is reported as at most 0.25. FGDN was tested, and the enrichment ratio was at most 0.25. In the case of NTGR, the enrichment ratio is reported as at most 0.25. FFHM was tested, and the enrichment ratio was 0.397. Work on NAPR yielded an enrichment ratio of at most 0.25. In the case of HFSD, the enrichment ratio is reported as at most 0.25. In the case of RDDA, the enrichment ratio is reported as at most 0.25. AFVP gave an enrichment ratio of at most 0.25. SRGH gave an enrichment ratio of at most 0.25. Variant YDIF has an enrichment ratio of at most 0.25. DMNW was tested, and the enrichment ratio was at most 0.25. Work on PQFM yielded an enrichment ratio of at most 0.25. EVKH was tested, and the enrichment ratio was at most 0.25. VVSH showed an enrichment ratio of 1.4. In the case of FNYC, the enrichment ratio is reported as at most 0.25. For GTGQ, the enrichment ratio was at most 0.25. Variant QSNF has an enrichment ratio of 5.26. In the case of APWI, the enrichment ratio is reported as at most 0.25. VFHM showed an enrichment ratio of at most 0.25. Work on LETC yielded an enrichment ratio of at most 0.25. ERSL was tested, and the enrichment ratio was at most 0.25. NFTK was tested, and the enrichment ratio was at most 0.25. For FCYP, the enrichment ratio was at most 0.25. DNSY was tested, and the enrichment ratio was at most 0.25. TYSW was tested, and the enrichment ratio was at most 0.25. With YTFM the enrichment ratio was at most 0.25. TEEN was tested, and the enrichment ratio was 3.06. TDAY gave an enrichment ratio of 0.283. For MRNT, the enrichment ratio was at most 0.25. In the case of RHVL, the enrichment ratio is reported as at most 0.25. IEVS was tested, and the enrichment ratio was 3.53. For HGRM, the enrichment ratio was at most 0.25. In the case of LAHK, the enrichment ratio is reported as at most 0.25. IGEP was tested, and the enrichment ratio was at most 0.25. With KAIG the enrichment ratio was at most 0.25. Variant PNAE has an enrichment ratio of at most 0.25. Work on VNEF yielded an enrichment ratio of at most 0.25. Variant DFRM has an enrichment ratio of at most 0.25. With SESR the enrichment ratio was 4.3. GIKS was tested, and the enrichment ratio was at most 0.25. KSMN gave an enrichment ratio of at most 0.25. YHKE was tested, and the enrichment ratio was at most 0.25. For TRRF, the enrichment ratio was at most 0.25. For LSKY, the enrichment ratio was at most 0.25. TLHR showed an enrichment ratio of at most 0.25. In the case of DTMT, the enrichment ratio is reported as at most 0.25. With DHEI the enrichment ratio was at most 0.25. YTEL gave an enrichment ratio of at most 0.25. With QSIW the enrichment ratio was at most 0.25. In the case of KHPR, the enrichment ratio is reported as at most 0.25. Variant IHTR has an enrichment ratio of at most 0.25. HRLT showed an enrichment ratio of at most 0.25. FETH was tested, and the enrichment ratio was at most 0.25. Work on QHHS yielded an enrichment ratio of at most 0.25. For PLNR, the enrichment ratio was at most 0.25. GTGN was tested, and the enrichment ratio was at most 0.25. Work on GFPW yielded an enrichment ratio of at most 0.25. For GMAS, the enrichment ratio was 2.92. HKFS was tested, and the enrichment ratio was at most 0.25. Work on IQEG yielded an enrichment ratio of at most 0.25. With PELC the enrichment ratio was at most 0.25. LRMS showed an enrichment ratio of at most 0.25. DPNW was tested, and the enrichment ratio was at most 0.25. VEYI was tested, and the enrichment ratio was at most 0.25. For HPRA, the enrichment ratio was at most 0.25. Work on GSLE yielded an enrichment ratio of 1.76. DQRR showed an enrichment ratio of at most 0.25. Variant VENY has an enrichment ratio of at most 0.25. FMLV showed an enrichment ratio of at most 0.25. NRVS was tested, and the enrichment ratio was 0.327. YFPT was tested, and the enrichment ratio was 0.681. With LSWP the enrichment ratio was at most 0.25. NGMQ showed an enrichment ratio of at most 0.25. DFIQ was tested, and the enrichment ratio was at most 0.25. Work on QHGF yielded an enrichment ratio of 5.15. In the case of RTND, the enrichment ratio is reported as at most 0.25. In the case of QMVM, the enrichment ratio is reported as at most 0.25. In the case of RVLE, the enrichment ratio is reported as at most 0.25. APVT showed an enrichment ratio of at most 0.25. With RGNV the enrichment ratio was at most 0.25. Work on MPIC yielded an enrichment ratio of at most 0.25. In the case of TWPR, the enrichment ratio is reported as at most 0.25. In the case of AASS, the enrichment ratio is reported as 5.47. Work on PIWA yielded an enrichment ratio of at most 0.25.
